Assay results from paper PMC4336329 (PLoS ONE, 2015).
The whole screen tested about 310,000 compounds, of which about 14,000 (4.5%) showed an effect of 50% or more. The effect is printed as a negative number. This is one part of the list.

These compounds were tested against human ether-à-go-go-related gene (hERG) potassium channel (human, UniProt Q12809) (assay: primary screen, population patch clamp on CHO cells stably expressing hERG).
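Further: peak tail current of the secondary pulse compared with the same well before compound.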

Chain of human ether-à-go-go-related gene (hERG) potassium channel (Q12809 whole entry, looked up): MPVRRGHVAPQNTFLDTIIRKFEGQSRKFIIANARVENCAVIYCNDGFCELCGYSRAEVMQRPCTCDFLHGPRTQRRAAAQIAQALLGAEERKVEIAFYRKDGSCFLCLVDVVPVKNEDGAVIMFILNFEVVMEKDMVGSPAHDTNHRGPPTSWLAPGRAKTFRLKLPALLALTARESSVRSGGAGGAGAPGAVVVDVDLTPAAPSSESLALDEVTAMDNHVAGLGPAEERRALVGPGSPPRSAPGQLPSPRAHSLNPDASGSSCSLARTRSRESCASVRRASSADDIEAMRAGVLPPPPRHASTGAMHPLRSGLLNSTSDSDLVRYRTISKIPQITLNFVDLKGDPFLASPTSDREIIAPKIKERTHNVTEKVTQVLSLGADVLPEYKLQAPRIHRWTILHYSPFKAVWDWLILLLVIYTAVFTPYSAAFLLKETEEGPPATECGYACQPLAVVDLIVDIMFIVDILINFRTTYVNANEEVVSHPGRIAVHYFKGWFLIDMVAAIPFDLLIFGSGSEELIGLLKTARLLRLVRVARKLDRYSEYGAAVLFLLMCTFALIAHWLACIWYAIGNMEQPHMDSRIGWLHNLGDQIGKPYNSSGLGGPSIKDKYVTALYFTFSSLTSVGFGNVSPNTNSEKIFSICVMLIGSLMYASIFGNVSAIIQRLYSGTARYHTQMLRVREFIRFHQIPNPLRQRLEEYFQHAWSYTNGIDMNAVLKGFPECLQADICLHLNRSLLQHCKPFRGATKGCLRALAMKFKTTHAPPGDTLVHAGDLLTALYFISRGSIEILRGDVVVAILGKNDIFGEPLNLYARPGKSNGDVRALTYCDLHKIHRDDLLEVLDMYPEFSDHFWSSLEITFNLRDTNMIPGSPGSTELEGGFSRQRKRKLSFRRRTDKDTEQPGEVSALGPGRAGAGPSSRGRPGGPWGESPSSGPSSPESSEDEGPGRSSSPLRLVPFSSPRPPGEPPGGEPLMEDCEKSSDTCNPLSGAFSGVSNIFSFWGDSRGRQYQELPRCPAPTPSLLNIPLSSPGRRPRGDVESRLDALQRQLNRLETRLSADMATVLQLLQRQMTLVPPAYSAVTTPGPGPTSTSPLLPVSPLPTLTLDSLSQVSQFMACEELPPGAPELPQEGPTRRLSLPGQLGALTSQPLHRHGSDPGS

| SMILES | hERG current change (%, negative = inhibition) at 10uM [%] |
| --- | --- |
| Cc1cc(Cl)ccc1OCC(=O)N1C(C)CCCC1C (stereo not shown) | -6.46 |
| COc1ccc(S(=O)(=O)Cc2ccc(C(=O)NCCCN(C)c3ccccc3)o2)cc1 | -59.4 |
| O=C(Cn1cc(C(=O)c2cccs2)c2ccccc21)NCC1CCCO1 (stereo not shown) | -2.64 |
| CCCCOc1ccc(CSC(CC(=O)O)C(=O)O)cc1 (stereo not shown) | 15.9 |
| Cc1cc(C)nc(/N=C(\N)c2c(O)[nH]c(=O)[nH]c2=O)n1 | -1.29 |
| CCCCn1c(N)c(N(CCC(C)C)C(=O)COC(=O)c2sccc2C)c(=O)[nH]c1=O | -5.53 |
| CNc1nc(-c2ccccc2)[n+](-c2ccc(C)cc2)s1.[Br-] | -19.4 |
| CC(C)(C)c1ccc(OCCCNCc2ccccc2)cc1.O=C(O)C(=O)O | -19.5 |
| CC1CCCC(C)N1C(=O)CSc1nc2ncnc(N)c2[nH]1 (stereo not shown) | -9.76 |
| COc1ccc(S(=O)(=O)Nc2ccccc2C(N)=O)cc1OC | 10.1 |
| COC(=O)CCC(=O)Nc1cccc(Br)c1 | -0.553 |
| CC(=O)C1=C(O)C(=O)N(c2ccc(S(=O)(=O)Nc3nccs3)cc2)C1c1ccc([N+](=O)[O-])cc1 (stereo not shown) | 10.6 |
| COc1cc(C(=O)OC2CCOC2=O)c([N+](=O)[O-])cc1OC (stereo not shown) | 1.2 |
| CCCCn1c(N)c(N(CCC(C)C)C(=O)CN2C(=O)C3CCCCC3C2=O)c(=O)[nH]c1=O (stereo not shown) | 7.21 |
| CC(NCc1cccs1)C(=O)NC1CCCCC1.O=C(O)C(=O)O (stereo not shown) | 9.91 |
| COCCn1c(SCC(=O)Nc2ccccc2F)nc2c([nH]c3ccccc32)c1=O | 5.97 |
| O=C(Cc1ccccc1)Nc1c(C(=O)N2CCOCC2)cnn1-c1ccccc1 | 12.4 |
| COC(=O)c1c(C)[nH]c(C(=O)CSc2nnnn2-c2ccccc2)c1C | 13.9 |
| CC1=C(C(=O)OCc2ccccc2)C(c2ccccn2)c2c(n(C)c(=O)n(C)c2=O)N1 (stereo not shown) | -8.91 |
| Cc1cccc(C)c1Nc1c(-c2ccccn2)nc2ccccn12 | -6.5 |

| SMILES | hERG current change (%, negative = inhibition) at 10uM [%] |
| --- | --- |
| Cc1ccc2nc(N(CCCN(C)C)C(=O)c3ccc(Br)s3)sc2c1.Cl | -44.3 |
| CCn1c(=O)c(C(=O)NCc2ccc(F)cc2)c(O)c2ccccc21 | 9.48 |
| CCN(CC)c1ccc(C=C2C(=O)OC(C)(C(C)(C)C)OC2=O)cc1 (stereo not shown) | -3.06 |
| Cc1ccc(C(=O)COC(=O)c2cnccn2)cc1[N+](=O)[O-] | 10.8 |
| Cc1ccc(NC(=O)c2nc[nH]c2C(=O)N2CCN(c3ccccc3)CC2)cc1 | 8.53 |
| Cc1ccc(-c2csc(-c3c[nH]c4ccccc34)n2)c(C)c1 | 3.41 |
| CCOC(=O)C1CCN(c2ncnc3c(C)csc23)CC1 | -2.92 |
| CCn1c(COc2ccccc2C)nnc1SCC(=O)Nc1cc(C)on1 | -2.84 |
| Cc1ccccc1OCC(=O)OC(C)CN1CCN(C)CC1.Cl (stereo not shown) | 7.54 |
| CC1(c2nnc(Cc3ccccc3)o2)CC(c2ccc([N+](=O)[O-])cc2)=NO1 (stereo not shown) | -63.2 |
| CC(C)CC(=O)OCC(=O)Nc1ccccc1Sc1ccccc1 | -5.5 |
| COc1cc(NC(=O)c2ccc(Cl)cc2)c2ncccc2c1 | 17.6 |
| CO/N=C/CC(=O)c1ccc(OC)cc1 | 17.2 |
| CC1(C)C(=O)N(OCc2ccccc2)C(C)(C)C(=O)N1OCc1ccccc1 | 1.44 |
| C=CCC(=O)N1CCCC(CCC(=O)NCc2ccccc2F)C1 (stereo not shown) | 11.4 |
| CCCN1CCC(NCc2cn(C)nc2-c2ccc(Oc3ccccc3)cc2)CC1 | -66.1 |
| COc1ccc(-n2nc(C(N)=O)c(O)cc2=O)cc1 | 26.9 |
| CCC(CC)C(=O)Nc1cccc(C(=O)N2CCCCCC2)c1 | -5.69 |
| C=CCSC1=C(C#N)C(c2cccc(OC)c2)CC(=O)N1 (stereo not shown) | -13.2 |
| CSc1nc2ccccc2n1Cc1cccc([N+](=O)[O-])c1 | -44.8 |

| SMILES | hERG current change (%, negative = inhibition) at 10uM [%] |
| --- | --- |
| COc1ccc2c(C)cc(SC3CCOC3=O)nc2c1 (stereo not shown) | -0.712 |
| COc1ccccc1C(=O)NNC(=O)C1CCN(C(=O)OC(C)(C)C)CC1 | 8.53 |
| CCOC(=O)C1=C(C)N(CCO)C(=O)NC1c1ccccc1 (stereo not shown) | -12.2 |
| CSc1nnc2c3c4c(sc3c(=O)n(-c3ccccc3)n12)CC(C)(C)OC4 | 2.89 |
| Cc1cc(/C=C2\C(=N)N3N=C(C(C)C)SC3=NC2=O)c(C)n1Cc1ccccc1 | -0.943 |
| Cc1ccc(CC(=O)NC2CCN(Cc3ccccc3)CC2)cc1 | -12.7 |
| Cc1ccc(S(=O)(=O)NCCSc2nnnn2-c2ccc(C(N)=O)cc2)cc1 | 3.61 |
| COc1cc(C(=O)N2CC(C)OC(C)C2)c([N+](=O)[O-])cc1OC (stereo not shown) | 4.79 |
| CCOC(=O)N1CCN(c2ccc([N+](=O)[O-])cc2)CC1 | -59.4 |
| CNCCCN1c2ccccc2CCc2ccccc21.Cl | -2.73 |
| Cc1cc2cccc(C)c2nc1SCC(=O)NC1CCCCC1 | 3.5 |
| O=C(O)c1cc([N+](=O)[O-])c(NCc2cccnc2)c([N+](=O)[O-])c1 | 9.52 |
| FC(F)(F)c1cccc(NC(=S)N2CCN(c3ccccc3)CC2)c1 | 10.1 |
| Cc1ccc(S(=O)(=O)N2CCC(C(N)=O)CC2)cc1[N+](=O)[O-] | 0.751 |
| O=C(NC1CC(=O)N(c2ccccc2)C1)N1CCN(C(=O)c2ccco2)CC1 (stereo not shown) | -5.77 |
| CCCCCNCC(=O)Nc1cc(C(F)(F)F)ccc1OCCOC | -34.2 |
| CC(=O)c1cc2c(cc1NC(=O)CSc1nnc(C)s1)OCO2 | 5.69 |
| CCOC(=O)CNC(=O)CSc1nc(-c2cccc(C)c2)ns1 | 4.44 |
